# Experimental data from PubChem BioAssay AID1631 (National Center for Advancing Translational Sciences (NCATS), 2009).
# The whole screen tested about 260,000 compounds, of which about 890 (0.34%) were called active. This list was built around the results that the source calls inconclusive (neither active nor inactive); the mix of calls is not that of the screen. The call rests on the fitted dose curve; in most records, active means well fitted activation curve with a large enough effect; inconclusive means small, poorly fitted or top-dose-only effect; inactive means no such curve, though single readings can be large or run the other way. Potencies of inconclusive entries are left out as doubtful fits.
# Target: Pyruvate kinase PKM (Homo sapiens) (UniProt P14618)
# Test: qHTS Assay for Activators of Human Muscle isoform 2 Pyruvate Kinase; further: nearly all actives have a fitted effect of over 55% in size
# Conditions: purified PKM2, Kinase-Glo ATP luminescence; Potency: activation; activation: at 57.5 µM (top of the series), 0% is enzyme alone, no compound
# Description: NIH Chemical Genomics Center [NCGC] Matthew G. Vander Heiden, M.D., Ph.D. [Harvard Medical School, 77 Avenue Louis Pasteur, Boston, MA 02115] MLPCN Grant: 1 R03 MH085679-01 NCGC Assay Overview: Human pyruvate kinase muscle 2 (hPK-M2) enzyme was supplied as a highly purified (>95% pure) preparation from Harvard Medical School and assayed for its ability to generate ATP from ADP using phosphoenolpyruvate (PEP) as a substrate. ATP generation was detected in a coupled reaction by luciferase-mediated luminescence, an ATP-dependent process. […] The enzyme was assayed at an intermediate level of activity to screen for both inhibitors and activators.
# NCGC Assay Protocol Summary: Three uL of substrate mix (at r.t.) in assay buffer (50 mM Imidazole pH7.2, 50 mM KCl, 7 mM MgCl2, 0.01% Tween 20, 0.05% BSA) was dispensed into white solid bottom 1,536 well microtiter plates so that the final concentrations of substrates in the assay were 0.1 mM ADP and 0.5 mM PEP. 23 nL of compound were delivered by a pin tool and 1 uL of enzyme mix in assay buffer (4 degree Celsius) was added. Plates were incubated at room temperature for 1 hour. Two uL of detection mix (Kinase-Glo, Promega; at 4 degree Celsius protected from light) was added and luminescence read by a ViewLux (Perkin Elmer) at 5 second exposure/plate. Data were normalized to the uninhibited and AC100 inhibition (no enzyme). To monitor activation, the first column contained a titration of the activator, NCGC00031955-01 (16-point 1:2 dilutions in duplicate starting at 57 uM) and the first 16 rows of column 4 contained 57 uM of NCGC00031955-01.
# On the % scale 0 is the no-effect control and ±100 the full control effect; potency means the concentration at half of the fitted maximal effect; tags describe the fitted curve by direction and shape.
# Chain of UniProt P14618 (P14618 whole entry, looked up, canonical isoform): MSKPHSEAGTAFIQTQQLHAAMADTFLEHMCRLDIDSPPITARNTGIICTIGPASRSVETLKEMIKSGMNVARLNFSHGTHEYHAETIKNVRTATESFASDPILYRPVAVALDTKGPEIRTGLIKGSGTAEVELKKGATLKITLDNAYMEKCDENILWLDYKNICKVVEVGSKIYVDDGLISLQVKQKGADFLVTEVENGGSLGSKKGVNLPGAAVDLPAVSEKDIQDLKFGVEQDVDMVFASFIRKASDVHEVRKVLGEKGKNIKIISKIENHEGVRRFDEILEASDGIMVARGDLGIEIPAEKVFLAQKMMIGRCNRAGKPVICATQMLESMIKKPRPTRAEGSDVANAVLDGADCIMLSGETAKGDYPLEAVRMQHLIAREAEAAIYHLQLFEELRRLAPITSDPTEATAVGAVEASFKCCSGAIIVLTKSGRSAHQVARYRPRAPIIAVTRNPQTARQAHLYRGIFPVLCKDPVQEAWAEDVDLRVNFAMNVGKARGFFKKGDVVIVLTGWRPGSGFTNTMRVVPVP
SMILES,activation,Potency
Cc1nc(-c2ccc(NC(=O)c3ccc(Br)o3)cc2)cs1,inactive: 0.751%,
Cc1nn2c(=O)c(NC(=O)c3ccc(F)cc3)cnc2s1,,"inconclusive [rising, single point]"
COC(=O)Cn1c(CN2CCOCC2)nc2c1c(=O)n(C)c(=O)n2C,inactive: 0.13%,
N#Cc1c(-c2cccs2)nc(SCc2ccc(Cl)cc2)[nH]c1=O,,active: 31.6 µM
CCOC(=S)SCC(=O)Nc1nc(-c2ccc(Br)cc2)cs1,inactive: 0.099%,
CCc1nnc(NC(=O)CSc2nnc3c4ccccc4n(C)c3n2)s1,,active: 1.41 µM
CCOC(=O)CSc1nnc(CSc2nc(C)cc(C)n2)n1Cc1ccco1,,"inconclusive [rising, single point]"
Cc1cccc(N2CCN(C(=O)C3CC(=O)N(C4CCCC4)C3)CC2)c1C (stereo unspecified),,"inconclusive [rising, partial curve]"
CCC(=O)OCC(=O)Nc1cc([N+](=O)[O-])ccc1Cl,inactive: -1.67%,
Cc1ccccc1NS(=O)(=O)c1ccc2oc(=O)ccc2c1,,"inconclusive [rising, full curve]"
CCCCCCCC(=O)Nc1ccc(C(=O)N/N=C/c2cccc([N+](=O)[O-])c2)cc1,inactive: 2.14%,
COc1ccc(S(=O)(=O)NCCCCNS(=O)(=O)c2ccc(OC)cc2)cc1,,"inconclusive [rising, single point]"
Cc1cc(N2CCOCC2)nc(NCc2ccccc2)n1,,"inconclusive [rising, partial curve]"
Cc1oc(=O)c(NC(=O)c2cccc(Cl)c2)cc1C(=O)c1ccccc1,,active: 7.08 µM
Clc1nc2ccccc2nc1-c1ccccc1,,"inconclusive [rising, single point]"
O=C(c1ccc([N+](=O)[O-])cc1)N1C=CC(C(F)(F)F)=NCC1,,"inconclusive [rising, single point]"
Nc1nc(-c2ccccc2)c(-c2ccc([N+](=O)[O-])cc2)s1,,active: 20 µM
COc1ccc(CCNC(=O)CN2CCCc3ccccc32)cc1OC,,"inconclusive [rising, partial curve]"
COc1ccccc1NS(=O)(=O)c1ccc(NC(=O)CCNC(=O)c2ccco2)cc1,,"inconclusive [rising, single point]"
CCCN(CC(=O)Nc1ccccc1C)C(=O)Cc1coc2cc(C)ccc12,inactive: 0.932%,
Cc1ccc(NC(=O)CN2C(=O)S/C(=C/c3ccc(-c4cc(C(=O)O)ccc4C)o3)C2=O)cc1C,,"inconclusive [rising, single point]"
CCN(/N=C/c1ccccc1)c1cc(=O)n(C)c(=O)[nH]1,,"inconclusive [rising, single point]"
CN(C)S(=O)(=O)c1ccc(Cl)c(NC(=O)COc2ccccc2[N+](=O)[O-])c1,inactive: -2.96%,
COc1ccc(Cc2nn[nH]n2)cc1,inactive: 4.75%,
COc1cc(NC(=O)C(C)Oc2ccccc2)c(OC)cc1NC(=O)c1ccccc1 (stereo unspecified),inactive: 2.38%,
CN1c2cccc3cccc(c23)N(C)C1(C)C,inactive: -7.97%,

SMILES,activation,Potency
CC1CCCC(C)N1C(=O)c1cccc2c1-c1ccccc1/C2=N/O (stereo unspecified),,"inconclusive [rising, single point]"
CCCN(CCC)c1ncnc2nc[nH]c12,inactive: -6.17%,
COC(=O)c1ccc(COc2ccc(C)cc2[N+](=O)[O-])o1,inactive: -25.1%,
CN(C)S(=O)(=O)c1cc(NC(=O)COC(=O)/C=C/c2ccco2)ccc1Cl,inactive: 7.62%,
COc1ccc(S(=O)(=O)NCc2cccnc2)cc1C,,"inconclusive [rising, single point]"
N=C1S/C(=C\c2ccc(-c3cccc(Cl)c3)o2)C(=O)N1c1nccs1,,"inconclusive [rising, full curve]"
COc1ccc(C(C(=O)NC2CCCC2)N2CCc3ccccc32)cc1 (stereo unspecified),,"inconclusive [rising, partial curve]"
CCOC(=O)c1c(CSC(=N)N)n(C)c2cc(Br)c(OC(C)=O)cc12,,active: 15.8 µM
COc1ccc(NC(=O)CSc2ccccn2)c([N+](=O)[O-])c1,,"inconclusive [rising, partial curve]"
Cc1ccc(OCCCSc2ncccn2)cc1C,inactive: 10.4%,
Cc1nn(CCC(=O)N2CCN(S(=O)(=O)c3ccccc3)CC2)c(C)c1C,,active: 11.2 µM
O=C1N=C(N2CCN(c3ccccc3)CC2)S/C1=C\c1cn[nH]c1-c1ccccc1,inactive: -7.47%,
COC(=O)c1ccc(-c2ccc(/C=N/N3C(=O)C4C5C=CC(C6CC56)C4C3=O)o2)cc1 (stereo unspecified),inactive: -2.71%,
Cc1ccc2c(c1)-c1c(cnn1CC(=O)NC(C)CCc1ccco1)CO2 (stereo unspecified),,"inconclusive [rising, single point]"
Cc1ccc(N2C(=O)CC(Nc3ccc(Cl)c(S(=O)(=O)N(C)C)c3)C2=O)c(C)c1 (stereo unspecified),inactive: -9.27%,
O=C(Nc1ccc(Cl)cc1)N1CCN(c2ccccc2)CC1,inactive: -0.114%,
Cc1ccc(S(=O)(=O)CCN2C=CC(C(F)(F)F)=NCC2)cc1,,"inconclusive [rising, single point]"
O=C(O)C(C(=O)/C=C/c1ccco1)=C1SCCS1,,"inconclusive [rising, single point]"
O=C(CSc1ccccc1)Nc1ccc(N2CCN(c3ccccc3)CC2)c(F)c1,,"inconclusive [rising, full curve, poor fit]"
O=C(CC(C(=O)NCc1ccccc1)c1nc2ccccc2c(=O)[nH]1)NCc1ccccc1 (stereo unspecified),,"inconclusive [rising, partial curve]"
COc1cccc(NC(=O)CSc2nnc(-c3ccoc3C)n2-c2ccccc2)c1,inactive: -0.849%,
CN(C)/C(Cn1cncn1)=C1/N=C(c2c(F)cccc2F)OC1=O,,active: 25.1 µM
C/C(=N\NC(=S)Nc1c(C)cccc1C)c1cc2ccccc2o1,inactive: 0.164%,
COc1ccc(-c2[nH]c(-c3cccc(OC)c3)nc2SCC(=O)NC2CCCC2)cc1,inactive: -2.8%,
COc1ccc(/C=C2\Oc3cc(OC(=O)N4CCOCC4)ccc3C2=O)cc1,,"inconclusive [rising, single point]"
